Assay results taken from PubChem BioAssay AID686978 (National Center for Advancing Translational Sciences (NCATS), 2013).
Several values for one entry are separate records, joined by “and”; a condition that tells them apart may be missing. Equal entries are not always repeated. Screen size: about 420,000 compounds; about 64,000 (15%) were called active. Inconclusive results, whose numbers are uncertain, are shown with a selection of clear calls. The call rests on the fitted dose curve; in most records, active means well fitted inhibition curve with a large enough effect; inconclusive means small, poorly fitted or top-dose-only effect; inactive means flat fitted curve, though single readings scatter. Potencies of inconclusive entries are left out as doubtful fits.
On the % scale 0 is the no-effect control and ±100 the full control effect; potency means the concentration at half of the fitted maximal effect; tags describe the fitted curve by direction and shape.

Experiment: qHTS for Inhibitors of human tyrosyl-DNA phosphodiesterase 1 (TDP1): qHTS in cells in absence of CPT; further: nearly all actives have a fitted effect of over 55% in size
Conditions: DT40 Tdp1-/- hTDP1 cells, no CPT, ATP luminescence, 48 h; activity change, negative = growth inhibition: at 46.2 µM (top of the series) unless noted
Method in brief: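 Seeded 400 DT40-hTDP1 cells/well (vehicle DMSO, no 20 nM CPT); pinned compounds; ≥48 hr at 37 °C; CellTiter-Glo luminescence as viability measure.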
In the case of `CCOC(=O)COc1ccc(/C=C2/SC(=Nc3ccccc3)N(Cc3cccnc3)C2=O)cc1OC`, the Potency is reported as inconclusive [inhibitor, single point].
In the case of `Cc1ccccc1C(C(=O)NC1CCCCC1)N(C(=O)CNC(=O)c1ccco1)c1cccnc1` (stereo unspecified), the “activity change, negative = growth inhibition” value is reported as inactive: -25.6%.
For `Cc1ccc(Cc2c(-c3ccccc3)nc3cc(C)ccn23)cc1`, the Potency was active: 18.4 µM.
With `Cc1ccc(C)c(SCC(=O)OCC(=O)NCCNC(=O)COC(=O)CSc2cc(C)ccc2C)c1` the “activity change, negative = growth inhibition” value was inactive: -7.21%.
For `COc1ccc(C(=O)CCNc2ccc(C)c(Cl)c2)cc1`, the Potency was inconclusive [inhibitor, single point].
With `CCOc1ccc(CCNC(=O)Cn2nc(CC)n3c(cc4c(OC)cccc43)c2=O)cc1OCC` the Potency was inconclusive [inhibitor, partial curve, poor fit].
For `CCOc1ccc(S(=O)(=O)NCCC(=O)N2CCN(C(C)=O)CC2)cc1`, the Potency was inconclusive [inhibitor, single point].
With `CCCCCCOc1ccc(/C(N)=N/O)cc1` the Potency was active: 20.6 µM.
For `Cc1cc(-c2ccccc2)n2nc(C)c(-c3ccccc3)c2n1`, the Potency was inconclusive [inhibitor, single point].
In the case of `O=C(Nc1ccccc1N1CCCCC1)C1CCN(S(=O)(=O)c2ccccc2C(F)(F)F)CC1`, the Potency is reported as inconclusive [inhibitor, partial curve].
In the case of `CCc1cccc(CC)c1NC(=O)C1CSC2(C)CCC(=O)N12` (stereo unspecified), the “activity change, negative = growth inhibition” value is reported as inactive: 10.6%.
With `COc1cc2cc(C)c(SCC(=O)N3CCN(C(=O)c4ccco4)CC3)nc2cc1OC` the Potency was inconclusive [inhibitor, single point].
In the case of `O=C(NNc1c2ccccc2nc2ccccc12)c1ccc(O)cc1O`, the Potency is reported as active: 16.4 µM.
With `O=c1c2c3c(sc2n(CCN2CCCC2)c(=O)n1Cc1ccco1)CCCCC3` the Potency was active: 11.6 µM.
In the case of `O=C1c2ccccc2C(=O)N1Cc1cc(-c2ccccc2Cl)no1`, the “activity change, negative = growth inhibition” value is reported as inactive: -2.31%.
For `COc1ccccc1OCC(=O)O`, the Potency was “inactive”.
In the case of `CC(Sc1nnc(-c2ccc(Cl)cc2)n1N)C(=O)NCC1CCCO1` (stereo unspecified), the “activity change, negative = growth inhibition” value is reported as inactive: 6.55%.
With `CC(C)CNc1ncnc2c1cnn2Cc1ccc(Cl)cc1` the Potency was inconclusive [inhibitor, single point].
For `COc1ccc2c(C)c(CC(=O)N3C[C@H]4C[C@@H](C3)c3cccc(=O)n3C4)c(=O)oc2c1OC`, the “activity change, negative = growth inhibition” value was inactive: -9.96%.
In the case of `O=C(CCCCCn1nnc2ccccc2c1=O)Nc1ccccc1Cl`, the “activity change, negative = growth inhibition” value is reported as inactive: -16.1%.
With `O=C(N[C@@H]1CCC(=O)N(CC[C@H](Sc2ccccc2)c2ccccc2)CC1)OCc1ccccc1` the Potency was active: 14.1 µM and active: 23.1 µM.
With `COc1ccc(C(=O)C2CCCN(C(=O)c3cccc(Cn4cccn4)c3)C2)cc1F` (stereo unspecified) the Potency was inconclusive [inhibitor, single point].
With `COCCNC(=O)c1ccccc1NC(=O)Cc1ccccc1[N+](=O)[O-]` the “activity change, negative = growth inhibition” value was inactive: 1.32%.
With `Oc1ccc(CNc2ccccc2O)cc1` the Potency was inconclusive [inhibitor, single point].
With `CCc1ccc(CNC(=O)C2CCN(C(=O)c3ccc(-n4ccc5ccccc54)s3)CC2)cc1` the Potency was inconclusive [inhibitor, full curve].
In the case of `COCCN(Cc1ccc(OC)cc1)c1c(C)nc2ccc(C(=O)NCCc3c[nH]c4ccccc34)cn12`, the Potency is reported as inconclusive [inhibitor, single point].
For `COc1ccc(N2CCN(C(CNC(=O)C(=O)NCCc3c[nH]c4ccccc34)c3ccco3)CC2)cc1` (stereo unspecified), the Potency was inconclusive [inhibitor, partial curve, poor fit].
For `O=C(Nc1ccc(C(O)c2ccccc2)cc1)[C@H]1C[C@H](O)[C@@H](CO)O1` (stereo partly specified), the “activity change, negative = growth inhibition” value was inactive: -1.97%.
For `O=C(Nc1nnc(C2=COCCO2)o1)c1ccc(S(=O)(=O)N2CCCCC2)cc1`, the Potency was inconclusive [inhibitor, single point].
In the case of `O=C(c1cccc(Cl)c1)N1CCN(Cc2c[nH]c3ccccc23)CC1`, the Potency is reported as inconclusive [inhibitor, partial curve].
In the case of `COc1cccc(/C=N/NC(=O)c2nnn(-c3nonc3N)c2C(C)C)c1`, the “activity change, negative = growth inhibition” value is reported as inactive: -16.5%.
For `C=CCN1C(=O)C(CC(=O)NCC)SC1=Nc1cc(Cl)ccc1Cl` (stereo unspecified), the Potency was inconclusive [inhibitor, single point].
In the case of `O=C(OCc1ccccc1)N1CCC2CC1c1cc(N3CCOCC3)ccc12` (stereo unspecified), the Potency is reported as inconclusive [inhibitor, single point].
With `Cc1oc(-c2cccc(Br)c2)nc1CSc1nc2ncccc2[nH]1` the Potency was inconclusive [inhibitor, single point].
In the case of `COc1ccc(CN2C(=O)c3cccnc3C2=O)cc1S(=O)(=O)N1CC(C)CC(C)C1` (stereo unspecified), the Potency is reported as inconclusive [inhibitor, partial curve].
With `Brc1ccc(-c2ccc(CNCc3ccccn3)o2)cc1` the Potency was inconclusive [inhibitor, partial curve, poor fit].
For `O=S(=O)(NC1CCCCC1)c1ccc(Cl)s1`, the “activity change, negative = growth inhibition” value was inactive: -28.1%.
For `Cc1nc2nc3c(cn2n1)C(=O)CC(C)(C)C3`, the “activity change, negative = growth inhibition” value was inactive: 11.9%.
With `Fc1cccc(Cc2c(-c3ccco3)nc3ccc(Br)cn23)c1` the Potency was active: 16.4 µM.
For `O=C(CCCN1C(=O)NC2(CCCC2)C1=O)Nc1cccc(S(=O)(=O)N2CCOCC2)c1`, the “activity change, negative = growth inhibition” value was inactive: -14.5%.
With `Brc1ccc(N=C/C=C/C=C/Nc2ccc(Br)cc2)cc1` the “activity change, negative = growth inhibition” value was inactive: -12.1%.
For `O=S1(=O)[C@H]2C[C@H](CO)O[C@@]2(CO)CN1Cc1ccc(-c2ccc(F)cc2)cc1`, the Potency was inconclusive [inhibitor, single point].
For `CC(C)C1O/C(=N/C(=O)Nc2ccc(Cl)c(Cl)c2)NC1=O` (stereo unspecified), the Potency was inconclusive [inhibitor, single point].
For `O=C(O)c1ccc(S(=O)(=O)NCc2cccnc2)cc1`, the “activity change, negative = growth inhibition” value was inactive: -1.11%.
In the case of `COc1cccc(CNC(=O)C(=O)NCCC2CCCCN2S(=O)(=O)c2cccs2)c1` (stereo unspecified), the Potency is reported as inconclusive [inhibitor, single point].
With `NCCCC[C@@H]1NC(=O)c2cc([N+](=O)[O-])cc(I)c2SC[C@@H](C(N)=O)NC(=O)[C@H](Cc2ccc(O)cc2)NC1=O` the “activity change, negative = growth inhibition” value was inactive: -8.68%.
